# Source: the supplement of paper PMC10126150
# Values marked as one replicate rest on one cluster of the flow cell; about a third of the high ones do not repeat.
# System: ATP
# Assay: switch fluorescence ratio, 500 uM ATP over buffer (Cy3 cluster intensity, sum of 5 cycles each) (fold (ratio)); higher = stronger signal-on switching upon ATP binding; sequences stand for … in TCGTCGGCAGCGTCAGATGTGTATAAGAGACAGTTTTTTTTTTTTTTTTTTTTTTTTT…TC
# Conditions: aptamer strand: ATP DNA aptamer (quencher-CACCTGGGGGAGTATTGCGGAGGAAGG + anchor), 100 nM annealed; ATP concentration: 500 uM; one replicate
# Outline: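 Clusters carrying Cy3-labelled switching strands on a modified Illumina MiSeq flow-cell were annealed to 100 nM quencher-labelled ATP aptamer and imaged in selection buffer. They were imaged again after 15 min with 500 uM ATP at 22 °C, over five buffer/ATP cycles with NaOH stripping and re-annealing in between. For each cluster, the fluorescence ratio is the summed Cy3 intensity of the target cycles divided by that of the buffer cycles, averaged per switch-domain sequence. Clusters outside 100-1000 RFU were left out.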
# 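Further: ATP exposure 15 min at 22 °C before imaging.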
row,Sequence,switch fluorescence ratio
1,TTGTTAGCGA,1.84
2,TTGTTAGCTC,0.973
3,TTGTTAGGT,1.21
4,TTGTTATGCA,1.03
5,TTGTTCCGAA,0.976
6,TTGTTCGAGT,0.975
7,TTGTTGATG,0.963
8,TTGTTGGAC,1
9,TTGTTTACT,0.98
10,TTGTTTGAGA,0.97
11,TTGTTTGTAC,1
12,TTGTTTTA,0.981
13,TTGTTTTTC,0.988
14,TTTAACATCG,1.03
15,TTTAACGAGA,1.04
16,TTTAACTACT,1.04
17,TTTAAGCGT,1.01
18,TTTAAGGCTA,0.944
19,TTTAAGGTAA,0.96
20,TTTAATATCA,1.03
21,TTTAATGCAG,1.01
22,TTTAATTATC,0.996
23,TTTAATTCGT,0.998
24,TTTACAAGGG,0.984
25,TTTACATCTT,1.04
26,TTTACCATAT,1.02

row,Sequence,switch fluorescence ratio
1,TTTACCTTAC,2.19
2,TTTACCTTTT,1.03
3,TTTACGCTTA,1.04
4,TTTACTGCTA,1.2
5,TTTACTTAAT,1.06
6,TTTAGACTAT,0.987
7,TTTAGATATG,0.985
8,TTTAGATCTC,0.945
9,TTTAGCACGG,0.96
10,TTTAGGAA,0.995
11,TTTAGGGCTC,1.01
12,TTTAGGTTTC,0.97
13,TTTAGTAATT,1.15
14,TTTAGTCTTC,0.942
15,TTTAGTTCGA,0.989
16,TTTATAAG,0.957
17,TTTATCATGA,0.967
18,TTTATCATGT,1.03
19,TTTATGCAGA,1.07
20,TTTATTAGTG,0.985
21,TTTATTGAAA,1.03
22,TTTATTTC,0.973
23,TTTCAAGGTC,0.971
24,TTTCACCCGT,0.972
25,TTTCACCGTG,1.05
26,TTTCAGCACT,1.06

row,Sequence,switch fluorescence ratio
1,TTTCAGCTAT,1.05
2,TTTCATCTC,0.995
3,TTTCATTAGC,1.04
4,TTTCATTGCT,1.02
5,TTTCCAAAG,1.06
6,TTTCCACCGC,1.41
7,TTTCCATAG,1.06
8,TTTCCCAATG,1.05
9,TTTCCCAGCT,1.01
10,TTTCCGCCG,1.11
11,TTTCCGGCCC,1.11
12,TTTCCGTACT,1.12
13,TTTCCTAAAG,1.02
14,TTTCCTAGTA,1.01
15,TTTCCTTGCG,1.05
16,TTTCCTTGGA,0.99
17,TTTCCTTGGG,1.11
18,TTTCGAGATG,1.03
19,TTTCGAGCC,1.01
20,TTTCGCCCTC,1.05
21,TTTCGCCGAG,1.02
22,TTTCGCGGAG,1.03
23,TTTCGCTATT,1.02
24,TTTCGGAGGT,1.03
25,TTTCGGCTCG,1.01
26,TTTCGGGTC,1.06

row,Sequence,switch fluorescence ratio
1,TTTCGGGTCG,0.991
2,TTTCGGGTGT,1.02
3,TTTCGTATT,1.02
4,TTTCGTCGA,1.01
5,TTTCGTGATT,2.92
6,TTTCGTGGCG,0.945
7,TTTCGTTGG,0.995
8,TTTCTCAAGA,1.04
9,TTTCTCACAT,1.05
10,TTTCTCCTCC,1.56
11,TTTCTCGGGT,1.01
12,TTTCTGAACT,1.06
13,TTTCTGAAG,1.04
14,TTTCTGACCC,1.05
15,TTTCTTATAC,2.09
16,TTTCTTATCC,0.969
17,TTTCTTTGTG,0.99
18,TTTGAATTG,1.01
19,TTTGACATG,1.1
20,TTTGACCTGC,1.05
21,TTTGACTAGT,0.964
22,TTTGAGCCCG,0.964
23,TTTGAGCGCC,0.96
24,TTTGAGTGGA,0.984
25,TTTGAGTTTA,1.02
26,TTTGATATCT,0.993

row,Sequence,switch fluorescence ratio
1,TTTGATTCCT,1.15
2,TTTGATTCGC,1.08
3,TTTGCACCAA,1.02
4,TTTGCACGAT,1.07
5,TTTGCCAAGG,0.996
6,TTTGCCTAGG,1.05
7,TTTGCGATTA,0.957
8,TTTGCGTGTC,1.17
9,TTTGCTAGTC,1.03
10,TTTGCTCGC,1.03
11,TTTGCTCTTC,1.02
12,TTTGCTGCGT,1.02
13,TTTGCTGGGC,1
14,TTTGGCCTTT,0.965
15,TTTGGCGGAT,1.01
16,TTTGGGCAAT,1.14
17,TTTGGGGACC,0.991
18,TTTGGGTG,1.01
19,TTTGGTACAT,1.03
20,TTTGGTCGTA,1.03
21,TTTGGTCTAA,0.997
22,TTTGGTGC,1.06
23,TTTGGTGCTC,0.987
24,TTTGGTGGCC,1.03
25,TTTGTAACAA,1
26,TTTGTAAT,0.987

row,Sequence,switch fluorescence ratio
1,TTTGTATAAG,0.989
2,TTTGTATCGG,1.04
3,TTTGTCAATA,1.01
4,TTTGTCCATT,1.01
5,TTTGTGCTGA,1.01
6,TTTGTGGTAA,0.997
7,TTTGTGGTGT,1.24
8,TTTGTTCCTG,1.05
9,TTTGTTGGAG,0.981
10,TTTGTTTCGG,0.947
11,TTTTAAACA,1.03
12,TTTTAAGCG,1
13,TTTTAATACA,0.981
14,TTTTAGCCCT,1.01
15,TTTTATCTTC,1.03
16,TTTTATGAGT,1.04
17,TTTTATGATC,0.987
18,TTTTCAAGCA,1.07
19,TTTTCACGCT,0.976
20,TTTTCAGATA,1.02
21,TTTTCCACCA,1.02
22,TTTTCCATAC,1.22
23,TTTTCCGGTG,1.14
24,TTTTCCTAGG,1.14
25,TTTTCGGCTA,0.954
26,TTTTCGGTGT,1.02

row,Sequence,switch fluorescence ratio
1,TTTTCGTCAG,1
2,TTTTGACACC,0.981
3,TTTTGCATGC,1.03
4,TTTTGCCGGA,1
5,TTTTGCCGTC,1.04
6,TTTTGCTGGC,1.18
7,TTTTGGAGAC,0.975
8,TTTTGGGCGC,0.938
9,TTTTGGGTCT,0.976
10,TTTTGGGTT,1.04
11,TTTTGGTA,0.988
12,TTTTGTGCT,1.05
13,TTTTGTGGAG,1.04
14,TTTTTAAGC,0.982
15,TTTTTACAAA,1.26
16,TTTTTACTTC,1.04
17,TTTTTAGCAA,1.6
18,TTTTTCGCGA,1.01
19,TTTTTCGGAC,1
20,TTTTTGTCG,1
21,TTTTTTCGTA,0.996
